Measured values taken from US20190248881A1 (PRECITHERA, published 2019).

How the values were obtained:
TGF-β2 [1] = target: T1, TGF-β2 (UniProt P61812 303-414); experiment: SPR; SEC fraction 15 of PCT-0015 over TGF-β2 surface
T1 construct: also called TGF-B2; TGFb2
T1 sequence (looked up): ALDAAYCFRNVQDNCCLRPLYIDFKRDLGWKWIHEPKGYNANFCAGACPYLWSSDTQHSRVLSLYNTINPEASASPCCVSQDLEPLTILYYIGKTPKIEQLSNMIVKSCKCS

TGF-β3 [2] = target: T2, TGF-β3 (UniProt P10600 301-412); experiment: SPR; SEC fraction 14 of PCT-0015 over TGF-β3 surface
T2 construct: also called TGF-B3; TGFb3
T2 sequence (looked up): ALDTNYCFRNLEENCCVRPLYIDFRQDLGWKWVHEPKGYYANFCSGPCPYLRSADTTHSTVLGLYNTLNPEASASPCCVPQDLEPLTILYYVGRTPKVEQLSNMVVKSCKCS

TGF-β2 [3] = target: T1, TGF-β2; experiment: SPR (adjusted sensorgram), TGF-β2 surface, dilution series of PCT-0015 SEC fractions from column #1
TGF-β1 [4] = target: T3, TGF-β1 (UniProt P01137 in part); experiment: SPR; SEC fraction 15 of PCT-0015 over TGF-β1 surface
T3 construct: also called TGF-B1; TGFb1

TGF-β1 [5] = target: T3, TGF-β1; experiment: SPR; SEC fraction 14 of PCT-0015 over TGF-β1 surface
T3 sequence (P01137 279-390 limits assumed): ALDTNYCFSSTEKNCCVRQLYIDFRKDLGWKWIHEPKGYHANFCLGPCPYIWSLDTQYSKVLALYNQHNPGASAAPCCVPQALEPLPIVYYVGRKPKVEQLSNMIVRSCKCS

TGF-β3 [6] = target: T2, TGF-β3; experiment: SPR (adjusted sensorgram), TGF-β3 surface, dilution series of PCT-0015 SEC fractions from column #1
TGF-β3 [7] = target: T2, TGF-β3; experiment: SPR; SEC fraction 15 of PCT-0015 over TGF-β3 surface
TGF-β2 [8] = target: T1, TGF-β2; experiment: SPR; SEC fraction 14 of PCT-0015 over TGF-β2 surface
TGF-β2 [9] = target: T1, TGF-β2; experiment: SPR; purified peak fraction, cycle 6, TGF-B2
TGF-β2 [10] = target: T1, TGF-β2; experiment: SPR; purified peak fraction, cycle 8, TGF-B2
TGF-β3 [11] = target: T2, TGF-β3; experiment: SPR; purified peak fraction, cycle 6, TGF-B3
TGF-β3 [12] = target: T2, TGF-β3; experiment: SPR; purified peak fraction, cycle 4, TGF-B3
TGF-β1 [13] = target: T3, TGF-β1; experiment: cell-based or functional assay
TGF-β3 [14] = target: T2, TGF-β3; experiment: SPR; purified peak fraction, cycle 8, TGF-B3
TGF-β3 [15] = target: T2, TGF-β3; experiment: cell-based or functional assay
TGF-β2 [16] = target: T1, TGF-β2; experiment: SPR; average of cycles 4, 6, 8, TGF-B2
TGF-β1 [17] = target: T3, TGF-β1; experiment: SPR; purified peak fraction, cycle 6, TGF-B1
TGF-β1 [18] = target: T3, TGF-β1; experiment: SPR; purified peak fraction, cycle 8, TGF-B1
TGF-β2 [19] = target: T1, TGF-β2; experiment: SPR; purified peak fraction, cycle 4, TGF-B2
TGF-β1 [20] = target: T3, TGF-β1; experiment: SPR; average of cycles 4, 6, 8, TGF-B1
TGF-β3 [21] = target: T2, TGF-β3; experiment: SPR; average of cycles 4, 6, 8, TGF-B3
TGF-β1 [22] = target: T3, TGF-β1; experiment: SPR; purified peak fraction, cycle 4, TGF-B1
TGF-β3 [23] = target: T2, TGF-β3; experiment: cell-based or functional assay; remark: listed apart in the source
TGF-β1 [24] = target: T3, TGF-β1; experiment: cell-based or functional assay; remark: listed apart in the source
TGF-β2 [25] = target: T1, TGF-β2; experiment: cell-based or functional assay

B1: PCT-0015 HMW SEC fractions (fractions 14 and 15) (Fc fusion)
chain: NGAVKFPQLCKFCDVRFSTCDNQKSCMSNCSITSICEKPQEVCVAVWRKNDENITLETVCHDPKLPYHDFILEDAASPKCIMKEKKKPGETFFMCSCSSDECNDNIIFSEEYNTSNPDGLGPVESSPGHGLDTAAAGPEPSTRCELSPINASHPVQALMESFTVLSGCASHGTTGLPREVHVLNLRSTDQGPGQRQREVTLHLNPIASVHTHHKPIVFLLNSPQPLVWRLKTERLAAGVPRLFLVSEGSVVQFPSGNFSLTAETEERNFPQENEHLLRWAQKEYGAVTSFTELKIARNIYIKVGEDQVFPPTCNIGKNFLSLNYLAEYLQPKAAEGCVLPSQPHEKEVHIIELITPSSNPYSAFQVDIIVDIRPAQEDPEVVKNLVLILKSKKSVNWVIKSFDVKGNLKVIAPNSIGFGKESERSMTMTKLVRDDIPSTQENLMKWALDAGYRPVTSYTMAPVANRFHLRLENNEEMRDEEVHTIPPELRILLDPDKLPQLCKFCDVRFSTCDNQKSCMSNCSITSICEKPQEVCVAVWRKNDENITLETVCHDPKLPYHDFILEDAASPKCIMKEKKKPGETFFMCSCSSDECNDNIIFSEEYNTSNPDTGGG[in this place human IgG1 Fc]DDDDDDDDDD
notes: High molecular weight bands (>=240 kDa, non-reducing) of Protein A purified PCT-0015 after Superose 6 SEC; also called 1F14; 1F15
Binder B1 has a Kd (TGF-β2 [1]) of 0.805 nM, a koff (TGF-β2 [1]) of 0.000512 s⁻¹ and a kon (TGF-β2 [1]) of 636000 M⁻¹ s⁻¹. It also gave a Kd (TGF-β3 [2]) of 1.31 nM, a koff (TGF-β3 [2]) of 0.000441 s⁻¹ and a kon (TGF-β3 [2]) of 338000 M⁻¹ s⁻¹. For the same binder, the Kd (TGF-β2 [3]) was 0.805 nM, the Kd (TGF-β1 [4]) was 1.08 nM and the koff (TGF-β1 [4]) was 0.000453 s⁻¹. It also gave a kon (TGF-β1 [4]) of 420000 M⁻¹ s⁻¹, a Kd (TGF-β1 [5]) of 1.92 nM and a koff (TGF-β1 [5]) of 0.000551 s⁻¹. It also gave a kon (TGF-β1 [5]) of 288000 M⁻¹ s⁻¹, a Kd (TGF-β3 [6]) of 0.638 nM and a Kd (TGF-β3 [7]) of 0.638 nM. For the same binder, the koff (TGF-β3 [7]) was 0.000234 s⁻¹, the kon (TGF-β3 [7]) was 366000 M⁻¹ s⁻¹ and the Kd (TGF-β2 [8]) was 1.9 nM. The koff (TGF-β2 [8]) was 0.000724 s⁻¹ and the kon (TGF-β2 [8]) was 381000 M⁻¹ s⁻¹.

B2: PCT-0016NT (Fc fusion)
chain: [in this place human IgG1 Fc]GGGGSGGGGSGGGGSGNGAVKFPQLCKFCDVRFSTCDNQKSCMSNCSITSICEKPQEVCVAVWRKNDENITLETVCHDPKLPYHDFILEDAASPKCIMKEKKKPGETFFMCSCSSDECNDNIIFSEEYNTSNPDGLGPVESSPGHGLDTAAAGPEPSTRCELSPINASHPVQALMESFTVLSGCASHGTTGLPREVHVLNLRSTDQGPGQRQREVTLHLNPIASVHTHHKPIVFLLNSPQPLVWRLKTERLAAGVPRLFLVSEGSVVQFPSGNFSLTAETEERNFPQENEHLLRWAQKEYGAVTSFTELKIARNIYIKVGEDQVFPPTCNIGKNFLSLNYLAEYLQPKAAEGCVLPSQPHEKEVHIIELITPSSNPYSAFQVDIIVDIRPAQEDPEVVKNLVLILKSKKSVNWVIKSFDVKGNLKVIAPNSIGFGKESERSMTMTKLVRDDIPSTQENLMKWALDAGYRPVTSYTMAPVANRFHLRLENNEEMRDEEVHTIPPELRILLDPDKLPQLCKFCDVRFSTCDNQKSCMSNCSITSICEKPQEVCVAVWRKNDENITLETVCHDPKLPYHDFILEDAASPKCIMKEKKKPGETFFMCSCSSDECNDNIIFSEEYNTSNPD
B2 was tested, and the Kd (TGF-β2 [9]) was 0.0172 nM, the koff (TGF-β2 [9]) was 1.08e-05 s⁻¹ and the kon (TGF-β2 [9]) was 624000 M⁻¹ s⁻¹. The Kd (TGF-β2 [10]) was 0.028 nM, the koff (TGF-β2 [10]) was 1.71e-05 s⁻¹ and the kon (TGF-β2 [10]) was 610000 M⁻¹ s⁻¹. It also gave a Kd (TGF-β3 [11]) of 0.0627 nM, a koff (TGF-β3 [11]) of 2.64e-05 s⁻¹ and a kon (TGF-β3 [11]) of 420000 M⁻¹ s⁻¹. For the same binder, the Kd (TGF-β3 [12]) was 0.0714 nM, the koff (TGF-β3 [12]) was 2.93e-05 s⁻¹ and the kon (TGF-β3 [12]) was 410000 M⁻¹ s⁻¹. For the same binder, the “IC50 (read off the curve)” value (TGF-β1 [13]) was ~0.003 nM, the Kd (TGF-β3 [14]) was 0.0685 nM and the koff (TGF-β3 [14]) was 2.99e-05 s⁻¹. The kon (TGF-β3 [14]) was 437000 M⁻¹ s⁻¹, the “IC50 (read off the curve)” value (TGF-β3 [15]) was ~0.003 nM and the Kd (TGF-β2 [16]) was 0.0279 nM. For the same binder, the koff (TGF-β2 [16]) was 1.46e-05 s⁻¹, the kon (TGF-β2 [16]) was 549000 M⁻¹ s⁻¹ and the Kd (TGF-β1 [17]) was 0.0313 nM. The koff (TGF-β1 [17]) was 1.75e-05 s⁻¹, the kon (TGF-β1 [17]) was 559000 M⁻¹ s⁻¹ and the Kd (TGF-β1 [18]) was 0.0423 nM. It also gave a koff (TGF-β1 [18]) of 2.45e-05 s⁻¹, a kon (TGF-β1 [18]) of 580000 M⁻¹ s⁻¹ and a Kd (TGF-β2 [19]) of 0.0385 nM. It also gave a koff (TGF-β2 [19]) of 1.59e-05 s⁻¹, a kon (TGF-β2 [19]) of 414000 M⁻¹ s⁻¹ and a Kd (TGF-β1 [20]) of 0.041 nM. The koff (TGF-β1 [20]) was 2.26e-05 s⁻¹, the kon (TGF-β1 [20]) was 553000 M⁻¹ s⁻¹ and the Kd (TGF-β3 [21]) was 0.0675 nM. For the same binder, the koff (TGF-β3 [21]) was 2.85e-05 s⁻¹, the kon (TGF-β3 [21]) was 422000 M⁻¹ s⁻¹ and the Kd (TGF-β1 [22]) was 0.0496 nM. For the same binder, the koff (TGF-β1 [22]) was 2.58e-05 s⁻¹, the kon (TGF-β1 [22]) was 521000 M⁻¹ s⁻¹ and the “EC50, TGF-β isoform neutralization” value (TGF-β3 [23]) was 0.0032 nM. For the same binder, the “EC50, TGF-β isoform neutralization” value (TGF-β1 [24]) was 0.0065 nM and the “EC50, TGF-β isoform neutralization” value (TGF-β2 [25]) was 0.0041 nM.
